± gives the standard deviation of the averaged measurements. The list shows a part of the results.

The record followed here is the supplement of paper PMC11417369.

The test system of this test is PfAP2-EXP AP2 domain (GST-tagged). The test can be described thus: gcPBM binding intensity (ln(normalized median fluorescence intensity)); higher = stronger DNA binding. The essentials:
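An Agilent 4 × 180k array carrying primer-extended double-stranded 36-bp intergenic genomic probes and negative controls received GST-tagged P. falciparum DNA-binding domains expressed in E. coli, about 25 μg on average, for 1 h. The binding buffer contained 1× PBS, 1% milk, 0.2 mg/ml BSA, 0.5% salmon testes DNA and 0.03% Triton X-100. Binding intensity is the top Masliner-normalised natural-log median intensity across replicate spots of either probe orientation, read after Alexa488 anti-GST antibody staining and a 488 nm scan.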
As for “TTTTACAATAATAAGTAGATCTAAATAAAGATTTAA [GTGCAC_negctrl_site547]”, the “gcPBM binding intensity (ln)” value is 8.33 ± 0.59.

In the case of “CATACAAATTAATATGTACACACAAATATATATATA [CACACA_site8605]”, the “gcPBM binding intensity (ln)” value worked out at 9.73 ± 0.15.

As to “AAAAAAAAAAAATAATGTACATATGTATTTGAGAAA [XGTACX_site3572]”, the “gcPBM binding intensity (ln)” value came to 8.41 ± 0.45.

As for “TTTTTTTTTTTTTTTTGTACATATTTTAATTTGTTT [XGTACX_site6297]”, the “gcPBM binding intensity (ln)” value came to 8.05 ± 0.4.

For the sequence “TTCCAAAATTGCACATGTACAAAATTCTCCAATATG [XGTACX_site3419]”, the “gcPBM binding intensity (ln)” value was determined as 8.71 ± 0.33.

Turning to “TTTATATTATTTAATGAGAAATAATTATAAACAATT [TGCATGCA_negctrl_site65]”, the “gcPBM binding intensity (ln)” value amounted to 8.15 ± 0.51.

In the case of “GATATTCATAGAAACACACATACAAATTATGTATAT [CACACA_site144]”, the “gcPBM binding intensity (ln)” value was determined as 8.46 ± 0.43.

In the case of “GTTAAATAATATATATGTACATACATAAGTGTTACT [XGTACX_site4778]”, the “gcPBM binding intensity (ln)” value amounted to 8.64 ± 0.34.

Take “ATTTCCTTTTGTTTCAGTACATAATTTTTTTTTTTT [XGTACX_site4842]”: the “gcPBM binding intensity (ln)” value is 8.88 ± 0.57.

With “TTGCCCATTTAATTAACACACAAATATTTATATTCT [CACACA_site738]”, the “gcPBM binding intensity (ln)” value is 8.72 ± 0.26.

Turning to “TTTTTAAAGTTTTATACACACACCAAAATTATTCTA [CACACA_site600]”, the “gcPBM binding intensity (ln)” value turned out to be 8.32 ± 0.37.

For “TAATTGTACGCCAATACACACAGAATTAAAATGTAG [CACACA_site4234]”, the “gcPBM binding intensity (ln)” value was determined as 8.72 ± 0.42.

Consider “TATGTGCACCCATGTACATGCGGACATATGTTATAT [TGCATGCA_site383]”, for which the “gcPBM binding intensity (ln)” value worked out at 9.35 ± 0.23.

With “TATGTATTTAAATTAACACACATATGTGGTTAATAG [CACACA_site5697]”, the “gcPBM binding intensity (ln)” value amounted to 8.37 ± 0.37.

For “AAAAATTTGGCATACACACACACACCCACACCCACA [CACACA_site587]”, the “gcPBM binding intensity (ln)” value is 8.77 ± 0.49.

As to “ATATATTATATATATTGTACATGTAAAATTTTAAAA [XGTACX_site7197]”, the “gcPBM binding intensity (ln)” value was 8.67 ± 0.41.

Turning to “ACATATATATATATATATATATATATATCATTATGT [CACACA_negctrl_site724]”, the “gcPBM binding intensity (ln)” value was found to be 8.79 ± 0.16.

As for “ACTCTTGATCTGAATGCACACAATAAATTATATAAA [CACACA_site1438]”, the “gcPBM binding intensity (ln)” value was found to be 8.79 ± 0.23.

Consider “AGTATAATAATATTTACACACGCATATGTTATATAT [CACACA_site1476]”, for which the “gcPBM binding intensity (ln)” value was 8.61 ± 0.51.

Take “ATTTAAAAAAAAAAAACACACATGTGAATAGAAAAG [CACACA_site3323]”: the “gcPBM binding intensity (ln)” value amounted to 8.93 ± 0.38.

As to “AAAACGCTACATAATTGTACATGTAGAAATAAAAGC [XGTACX_site2895]”, the “gcPBM binding intensity (ln)” value is 9.2 ± 0.4.

Take “TCTAAAAATAAGAACACACACATATAAGCATATAAA [CACACA_site2274]”: the “gcPBM binding intensity (ln)” value turned out to be 8.65 ± 0.37.

Regarding “TACTGCCTTCCATACCCACACACTTCCCATATATTT [CACACA_site2705]”, the “gcPBM binding intensity (ln)” value was 9.11 ± 0.52.

“AATGTAAAATATAAATGTACATATATATATATATAT [XGTACX_site5071]”: the “gcPBM binding intensity (ln)” value turned out to be 10.2 ± 0.24.

As to “AAACAAAATATGGTTCATGAGCAAAAGTTTATTTTG [XGTACX_negctrl_site531]”, the “gcPBM binding intensity (ln)” value turned out to be 8.69 ± 0.47.

“ATTTATTTATACAAAGTGCAATATTTTGTTAAAGTC [GTGCAC_site9618]”: the “gcPBM binding intensity (ln)” value amounted to 8.62 ± 0.014.

Consider “CTCTTTTCTTATAATACACACAGTAATATATATATA [CACACA_site1520]”, for which the “gcPBM binding intensity (ln)” value was 9.54 ± 0.2.

Consider “ATATGAAATATATAAATATGTTTATATATATATATA [GTGCAC_negctrl_site94]”, for which the “gcPBM binding intensity (ln)” value came to 10.1 ± 0.33.

For the sequence “TATAAAATACATTTATAATATATATATATATTTTTT [TGCATGCA_negctrl_site435]”, the “gcPBM binding intensity (ln)” value stood at 8.03 ± 0.42.

Turning to “TCATTAAAGGAAAAATGTACGTATAAATAAATATAT [XGTACX_site2587]”, the “gcPBM binding intensity (ln)” value came out at 8.8 ± 0.42.

Turning to “TTCAAAAAATAAAATAATAATATATATATAAATATA [XGTACX_negctrl_site84]”, the “gcPBM binding intensity (ln)” value is 8.12 ± 0.36.

“TTTACATCAACCTTTTCACACATTCATATACAGATA [CACACA_site6152]”: the “gcPBM binding intensity (ln)” value stood at 8.74 ± 0.49.

Consider “TGTGTTTATACGTTTTGTACATATTTTTATTTTGTA [XGTACX_site6425]”, for which the “gcPBM binding intensity (ln)” value was determined as 8.85 ± 0.24.

With “TTTTTTATATTTAAACTTCACATGGTTTTCATTTAT [XGTACX_negctrl_site291]”, the “gcPBM binding intensity (ln)” value was determined as 8.68 ± 0.32.

Consider “ATACATATATATATATGTACACATAAACATGAGTGA [XGTACX_site3200]”, for which the “gcPBM binding intensity (ln)” value came out at 8.72 ± 0.3.

With “TAATGGAAACCATTTATTTTCTGCAATATATTTTTT [CACACA_negctrl_site1653]”, the “gcPBM binding intensity (ln)” value was determined as 8.08 ± 0.3.

For “ATACATAAAATTAAAACACACATTTTATTAAATACG [CACACA_site2167]”, the “gcPBM binding intensity (ln)” value came to 8.33 ± 0.13.

Take “GTGTGATGGTACAATATACACACTTAAAAAAAAAAA [CACACA_site8769]”: the “gcPBM binding intensity (ln)” value is 8.53 ± 0.48.

As to “AGTTATATGGTTAATACACACAACAAATGTTTCTTC [CACACA_site6642]”, the “gcPBM binding intensity (ln)” value is 8.57 ± 0.38.

For the sequence “AAAAAATATATTTGCACACTCAAAAAAAAAAAAAAA [CACACA_site859]”, the “gcPBM binding intensity (ln)” value worked out at 8.2 ± 0.53.

For the sequence “AATATAACTTAGAATTGTACATAAAAAAAAATATAT [XGTACX_site3313]”, the “gcPBM binding intensity (ln)” value amounted to 8.68 ± 0.35.

For the sequence “TACCTAATATGTTATACACACATTATAAGTACATAT [CACACA_site7206]”, the “gcPBM binding intensity (ln)” value stood at 8.58 ± 0.27.

Regarding “TAAGAAATAAATAGTACACACATAGACACACGCACA [CACACA_site6821]”, the “gcPBM binding intensity (ln)” value amounted to 9.03 ± 0.4.

“AAAAAAAAAAAAAAAAGTACATATATATATAATTAT [XGTACX_site7836]”: the “gcPBM binding intensity (ln)” value was 8.54 ± 0.43.
